# Assay results reported in a collection of fitness landscapes (doi:10.1126/science.1257360).
# The list shows a part of the results.
# B1: PhoQ; a variant is named by its letters at X, in order, P23837 (parent)
# chain: MKKLLRLFFPLSLRVRFLLATAAVVLVLSLAYGMVALIGYSVSFDKTTFRLLRGESNLFYTLAKWENNKLHVELPENIDKQSPTMTLIYDENGQLLWAQRDVPWLMKMIQPDWLKSNGFHEIEADVNDTSLLLSGDHSIQQQLQEVREDDDDAEMTHSVAVNVYPATSRMPKLTIVVVDTIPVELKSSYMVWSWFIYVLSANLLLVIPLLWVAAWWSLRPIEALAKEVRELEEHNRELLNPATTRELTSLVRNLNRLLKSERERYDKYRTTLTDLTHSLKTPLXXLQXXLRSLRSEKMSVSDAEPVMLEQISRISQQIGYYLHRASMRGGTLLSRELHPVAPLLDNLTSALNKVYQRKGVNISLDISPEISFVGEQNDFVEVMGNVLDNACKYCLEFVEISARQTDEHLYIVVEDDGPGIPLSKREVIFDRGQRVDTLRPGQGVGLAVAREITEQYEGKIVAGESMLGGARMEVIFGRQHSAPKDE
# Variants of: B1
# Test: enrichment ratio after two sorts for PhoP signalling (ratio (wild type AVST 3.29)); higher = more functional
# Conditions: with PhoP (E. coli)
row,Variant,enrichment ratio
1,NVIC,≤ 0.25
2,DGSW,≤ 0.25
3,WQLE,≤ 0.25
4,VECA,3.45
5,GCKH,≤ 0.25
6,TFPY,≤ 0.25
7,ACGS,10.4
8,EVRE,≤ 0.25
9,DFSL,1.11
10,VFCY,≤ 0.25
11,SLRN,≤ 0.25
12,KQVC,≤ 0.25
13,LDLQ,≤ 0.25
14,MPLM,≤ 0.25
15,PMNT,≤ 0.25
16,QFYE,≤ 0.25
17,IHMC,≤ 0.25
18,PQFD,≤ 0.25
19,KYCD,≤ 0.25
20,VCQI,≤ 0.25
21,FMVH,≤ 0.25
22,KCGK,≤ 0.25
23,HEHP,≤ 0.25
24,AAIM,10.3
25,ANLG,4.86
26,MPKT,≤ 0.25

row,Variant,enrichment ratio
1,KQYF,≤ 0.25
2,MCFR,≤ 0.25
3,AVCV,5.84
4,GKKN,≤ 0.25
5,LNMV,≤ 0.25
6,VERA,≤ 0.25
7,IPCA,≤ 0.25
8,GRDD,≤ 0.25
9,IEER,≤ 0.25
10,LQVG,≤ 0.25
11,PDGY,≤ 0.25
12,DEFG,≤ 0.25
13,RRQY,≤ 0.25
14,NNQK,≤ 0.25
15,KPHF,≤ 0.25
16,TGKQ,≤ 0.25
17,VSHH,≤ 0.25
18,FKSY,≤ 0.25
19,PSEP,≤ 0.25
20,KKHA,≤ 0.25
21,EWSP,≤ 0.25
22,VQLY,≤ 0.25
23,NIQI,≤ 0.25
24,LYYL,≤ 0.25
25,RNEN,≤ 0.25
26,RLAS,≤ 0.25

row,Variant,enrichment ratio
1,MLHH,≤ 0.25
2,HFED,≤ 0.25
3,DKNA,≤ 0.25
4,NIPR,≤ 0.25
5,DVIN,≤ 0.25
6,SCCM,10.8
7,KCMV,≤ 0.25
8,PTEA,≤ 0.25
9,NLNW,≤ 0.25
10,SKDQ,≤ 0.25
11,AWAQ,≤ 0.25
12,FGEP,≤ 0.25
13,FVQL,≤ 0.25
14,HNLS,≤ 0.25
15,PPGE,≤ 0.25
16,LFGT,0.261
17,IMMS,≤ 0.25
18,TQMI,6.9
19,FIWW,≤ 0.25
20,EYIF,≤ 0.25
21,DKAD,≤ 0.25
22,SCSW,5.69
23,AVLQ,4.51
24,IWHF,≤ 0.25
25,LELP,≤ 0.25
26,SGEF,≤ 0.25

row,Variant,enrichment ratio
1,DTHT,≤ 0.25
2,TLWN,≤ 0.25
3,YLRR,≤ 0.25
4,YLKL,≤ 0.25
5,PFND,≤ 0.25
6,KLDI,≤ 0.25
7,AAKH,≤ 0.25
8,HRMS,≤ 0.25
9,EHAG,≤ 0.25
10,EHMA,≤ 0.25
11,PCFH,≤ 0.25
12,RVDH,≤ 0.25
13,SLHY,≤ 0.25
14,FQFY,≤ 0.25
15,HCFD,≤ 0.25
16,EELG,≤ 0.25
17,RKHW,≤ 0.25
18,KDRF,≤ 0.25
19,NIIG,≤ 0.25
20,YKIF,≤ 0.25
21,MYEQ,≤ 0.25
22,HPDP,≤ 0.25
23,TENL,6.63
24,MVRS,≤ 0.25
25,NAVS,≤ 0.25
26,INAQ,≤ 0.25

row,Variant,enrichment ratio
1,SIFA,≤ 0.25
2,GHQE,≤ 0.25
3,NSET,≤ 0.25
4,QTDA,≤ 0.25
5,PTDD,≤ 0.25
6,VVDH,≤ 0.25
7,KMKH,≤ 0.25
8,IGAD,≤ 0.25
9,HGWY,≤ 0.25
10,WLVW,≤ 0.25
11,ALYT,≤ 0.25
12,LNIQ,≤ 0.25
13,EMNW,≤ 0.25
14,GWGI,≤ 0.25
15,KLVI,≤ 0.25
16,GGSS,2.96
17,QAAF,≤ 0.25
18,YSLK,≤ 0.25
19,VPVS,≤ 0.25
20,KNPE,≤ 0.25
21,KQGC,≤ 0.25
22,IILA,≤ 0.25
23,RWFL,≤ 0.25
24,SSIQ,10.8
25,TLAQ,6.79
26,YFCL,≤ 0.25

row,Variant,enrichment ratio
1,YKEW,≤ 0.25
2,EHDA,≤ 0.25
3,LILI,≤ 0.25
4,FQDE,≤ 0.25
5,MDPR,≤ 0.25
6,VKFN,≤ 0.25
7,PRDK,≤ 0.25
8,PFSC,≤ 0.25
9,LCVY,≤ 0.25
10,SQMP,≤ 0.25
11,RCAY,≤ 0.25
12,DTIC,≤ 0.25
13,YAII,≤ 0.25
14,DFHD,≤ 0.25
15,VFDG,≤ 0.25
16,EHVD,≤ 0.25
17,LWVH,≤ 0.25
18,QGHV,9.02
19,NIKA,≤ 0.25
20,LDNK,≤ 0.25
21,KGNQ,≤ 0.25
22,WDHQ,≤ 0.25
23,YTCF,2.21
